The RNAGym collection of RNA variant scans (doi:10.7554/elife.90254)
The source gives no read counts; variants with many changes may rest on few reads.

B1: LINE1-mini (parent)
chain: GGCAGAGCUCAACACAGCGUGGCAAAGUGGCUGUGGCUAGACUGCC

Variants of: B1
Assay: self-cleavage, relative activity (ratio to wild type); higher = more cleavage; in vitro, sequencing; the parent is a self-cleaving ribozyme

Row | Variant | self-cleavage
1 | A4G U9G A25U | 0.27
2 | A4G U9G C10A A16U G17A G35C G36A | 0.03
3 | A4G U9G C18U C31A C42A | 0.12
4 | A4G U20A C31A A39U | 0
5 | A4G U20A G21A G22U A25G C46A | 0.74
6 | A4G U20A G27C G44C | 0.01
7 | A4G U20C G40U | 0.09
8 | A4G U20G C37U A39G | 0
9 | A4G U20G C42G | 0.01
10 | A4G U20G G40C | 0.21
11 | A4G U28A G35C A39G | 0.05
12 | A4G U28G G33A C37A | 0.05
13 | A4G U32C G36A C42G | 0.03
14 | A4G U32G G35U | 0.09
15 | A4U A6C A11C G19A C23U G35C C37G | 0.02
16 | A4U A6C A14C U20A G21C | 0.01
17 | A4U A6C C45A | 0.05
18 | A4U A6C G36C C45A | 0.04
19 | A4U A6G C8G G40U | 0.06
20 | A4U A6G C15G G27C G36C U38A G40A | 0.22
21 | A4U A6G G7A G33C | 0.02

Row | Variant | self-cleavage
22 | A4U A6G G27A C31U C42G C45U | 0.03
23 | A4U A6U C18U U38A G40A U43A G44U | 0.06
24 | A4U A6U C31A C37U | 0.08
25 | A4U A6U C46G | 0.2
26 | A4U A6U G7C C18A G44U | 0.04
27 | A4U A6U G29U U32A C42A | 0.14
28 | A4U A6U U9A A16C C18U G27U | 0.17
29 | A4U A6U U9A C31A | 0.06
30 | A4U A6U U28A U34A | 0.06
31 | A4U A6U U28C | 0.02
32 | A4U A11C C31A | 0
33 | A4U A11C C31G | 0.02
34 | A4U A11C G22A C42G | 0.03
35 | A4U A11G A25U C31U | 0.03
36 | A4U A11G A26C | 0.01
37 | A4U A11G G40C | 0.05
38 | A4U A11G G44C | 0.02
39 | A4U A11U A12C C15U G29C U38C A39G | 0.01
40 | A4U A11U A12G G35U | 0.03
41 | A4U A11U A41C C46A | 0.01
42 | A4U A12C A16U G40U A41G G44C | 0.01

Row | Variant | self-cleavage
43 | A4U A12C C13U C18G | 0.03
44 | A4U A12C G30U | 0.02
45 | A4U A12U C15A U32G | 0.03
46 | A4U A12U C15U G30C G40U C46G | 0.04
47 | A4U A12U C37G G40U | 0.01
48 | A4U A12U G17U U32A | 0.02
49 | A4U A12U G29U G35U | 0.14
50 | A4U A12U U34G | 0.09
51 | A4U A14C C45A | 0.1
52 | A4U A14G A16C G17C C37G C45A | 0.24
53 | A4U A14G G22A C45U | 0.15
54 | A4U A14G G30A C31A U34A | 0.17
55 | A4U A14U A16U G19U A24G | 0.02
56 | A4U A14U G19U | 0.12
57 | A4U A16G G21A A26C | 0.06
58 | A4U A16U G22U G27A C37U C42G | 0.18
59 | A4U A16U U34G U38G | 0
60 | A4U A24C C46G | 0.04
61 | A4U A25G C37A U38C | 0.03
62 | A4U A25G C46A | 0.13
63 | A4U A25G G33C | 0.02

Row | Variant | self-cleavage
64 | A4U A26C G30U | 0.13
65 | A4U A26C G30U G33A | 0.09
66 | A4U A26C U34A | 0.17
67 | A4U C8A A12U | 0.14
68 | A4U C8A A16U | 0.12
69 | A4U C8A C13U C45G C46U | 0.18
70 | A4U C8A C31U C37A | 0.13
71 | A4U C8A C45A | 0.32
72 | A4U C8A C46U | 0.18
73 | A4U C8A G21U A26C U28C G29U | 0.07
74 | A4U C8A G33U C37A | 0.17
75 | A4U C8A U9G | 0.32
76 | A4U C8G C45A | 0
77 | A4U C8G G30C U34C | 0.05
78 | A4U C8G G33A C37G | 0.05
79 | A4U C8G U28C G36A | 0.01
80 | A4U C8G U43C | 0.02
81 | A4U C8U A14G A16U C37U | 0.01
82 | A4U C8U C10A G19A U32C C42U | 0.02
83 | A4U C8U C10G U20C G40A U43C | 0.01
84 | A4U C8U G17C A41G U43C | 0.03
